Results as given in the supplement of paper PMC11417369.
± gives the standard deviation of the averaged measurements. This is one part of the list.

The sequences below were run on PfAP2-G AP2 domain (GST-tagged) (assay: gcPBM binding intensity (ln(normalized median fluorescence intensity)); higher = stronger DNA binding).
Method in brief: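 Plasmodium falciparum DNA-binding domains carrying a GST tag were expressed in E. coli and applied for 1 h, at about 25 μg on average, to an Agilent 4 × 180k array. The array held primer-extended double-stranded 36-bp intergenic genomic probes together with negative controls, and binding took place in 1× PBS with 1% milk, 0.2 mg/ml BSA, 0.5% salmon testes DNA and 0.03% Triton X-100. An Alexa488 anti-GST antibody detected bound protein, and the array was scanned at 488 nm. Binding intensity is taken as the highest Masliner-normalised natural-log median intensity across replicate spots of either probe orientation.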

Sequence | gcPBM binding intensity (ln)
ATTATGAATTTTAATTGTACATTATTATAGAATGTA [XGTACX_site619] | 10.7 ± 0.48
AAAAAAAAAAGAAAAGGTACACAGAATATATATATA [XGTACX_site6914] | 11.1 ± 0.91
AAAAAAATAAGACACACACACAAAAAAATAAAAATA [CACACA_site6357] | 10.1 ± 0.26
AAAAATTCTTCCCAAGCATGCGCGCGTAAAATATTT [TGCATGCA_site77] | 10.4 ± 0.2
AAATTTTTTATTAGTAGTACGCATAAATATATGTAT [XGTACX_site1934] | 11.4 ± 0.87
AAAATTAAAATATCACGTACGAAGAAAAAATTAAGA [XGTACX_site6437] | 11 ± 0.47
TACACCCACCAACACACACACACACTAATAAAAAAA [CACACA_site8060] | 10.2 ± 0.44
CCTTTCCTAGCACATGCACACAAAAAAAAAAAAAAA [CACACA_site8396] | 10.3 ± 0.59
AAACGGCTATTAAAATGTACATGTAAATATATTAAA [XGTACX_site918] | 11 ± 0.59
AATACATATGGGTGTACACATTATATATATATATAT [CACACA_site4601] | 11.6 ± 0.89
ATCTTTTTACTTAATACACACACACCCAAAAAAAAA [CACACA_site8221] | 10.4 ± 0.33
ATATATATATCAAAATGTACAAAAATAGAATTTAAA [XGTACX_site8292] | 10.6 ± 0.28
CAGTAGTTTTTATGGGTGCAAAACATATATATAACA | 10.6 ± 0.49
ACATTTTGTAAAGAATGTACATATATATATATATTC [XGTACX_site8004] | 10.9 ± 0.47
TATATATATATATACACACACACACCCCAAAGCGTA [CACACA_site64] | 10.5 ± 0.74
AAAAAATGCGACATGTGTACACATATATATATATAT [XGTACX_site1679] | 11.8 ± 0.99
GAAAATATTACATACACGCACACATTAATATATTTA [CACACA_site2604] | 10.3 ± 0.3
CATGAATATTTATACATGCACACTAAAATAAAGAAT [CACACA_site2412] | 10.16 ± 0.078
GAGGGTATAATAAAAGCACACACAAAGATATAAATA [CACACA_site9087] | 10.1 ± 0.23
TTGTGTACATATTAAGTGCATATATATATATATATA | 11.7 ± 1.2
TATATATATATAGATGCATGCAATTACATATAACAA [TGCATGCA_site118] | 9.89 ± 0.17
TACATCAAACAAGTATGTACATATATATATATATAT [XGTACX_site7415] | 11.1 ± 0.7
ATTTTCTATATCTTTCAACACACAAATTTTTTTTTC [CACACA_site7918] | 9.94

Sequence | gcPBM binding intensity (ln)
AATAAATAGTAGTAGGTGCTACTATATTATATATAT [GTGCAC_site9452] | 9.675 ± 0.035
TATGTAATAATAAACGGTACACTATATTGTATGAAA [XGTACX_site4648] | 10.7 ± 0.4
GCATATGATGAGCATATAATCATAAGAAAAAAAAAA [CACACA_negctrl_site701] | 9.64 ± 0.014
TTCTGTATAACACAAATTTTTTTTTATTCACTCTGT [TGCATGCA_negctrl_site410] | 9.77 ± 0.26
TTTTTATCAAATAAATGTACACATATTAAATGAAAT [XGTACX_site555] | 11.4 ± 0.81
ATATTAAAATTAAACGCATGCATATATTATAAAAGA [TGCATGCA_site231] | 9.94 ± 0.11
CTAATTAATGGGTACATACACACATATATACATACA [CACACA_site743] | 11.3 ± 0.82
GGAAATAATATTATTACACACCAAAATGTATAAAAA [CACACA_site4036] | 10.14 ± 0.057
AAAATATTCACGTGTACATATATATATATATATTAT [TGCATGCA_negctrl_site192] | 11.4 ± 0.83
AACACTTCATACACGTGTACAAATATAATATAGACA [XGTACX_site5671] | 11.2 ± 0.73
TTATATCTTATAAAATGTACATAAAATATATAATAT [XGTACX_site7647] | 11.2 ± 0.61
ATATTTTTCTTAAGTACACACTAAATAGAAACTAAA [CACACA_site4191] | 11.4 ± 1
ATTAATTATATAATATGTACATATTACAAATATATA [XGTACX_site1478] | 11.2 ± 0.71
AAAAAAAAAAAAAACACACACACACGCATACAAAAT [CACACA_site6794] | 10.3 ± 0.18
TATTTCATAATAAATTGTACGCGTAGAAAACCATGA [XGTACX_site7506] | 11.6 ± 0.94
AATAATATAACAGAACAAAACTAAATATACACATAT [TGCATGCA_negctrl_site31] | 9.9 ± 0.13
GAGAAAAATAAATACACACACATAAATAAATACATA [CACACA_site5102] | 10 ± 0.11
TATGTATATTTTAATTGTACGTGTATGGTTGTAAAT [XGTACX_site8738] | 11.5 ± 1.1
TGATTAATAATTTTCTTCATACATTAAACATCTTTT [TGCATGCA_negctrl_site342] | 9.67 ± 0.099
TTTTTTTTTTCATTAACACACATAAATATATATATA [CACACA_site5759] | 10 ± 0.2
CACTAATAGTGGATTACACACATATATCTGTATTTA [CACACA_site5403] | 10.09 ± 0.042
TTAATGTTATATGTGTGTACATATAAGTTTAGTAAA [XGTACX_site4651] | 11.3 ± 0.91
ATAGTATCTGGTAGCTGTACGAGTCGTAGAGTGTAA [XGTACX_site4936] | 11.3 ± 0.82

Sequence | gcPBM binding intensity (ln)
ATATAAAACTAATTTCTTTTTCTCCTTTTATTTTGT [CACACA_negctrl_site1251] | 9.6 ± 0.099
AATATATATTAATAAAGTACAGGAAATATTTTTACC [XGTACX_site7052] | 11.5 ± 0.85
AAAATACATAGACACACACACACACGGATATAAATA [CACACA_site7643] | 10.2 ± 0.26
ATATATATATATAAATGTACAGATATATTTTTTATT [XGTACX_site5445] | 10.9 ± 0.44
TTTAATTTGATAGACACATGCACACGTGCAATACTT [TGCATGCA_site777] | 10.06 ± 0.092
TACTAAAAAATATAAACACACATATATTTTACATAT [CACACA_site2042] | 9.8 ± 0.11
GACATAAAATTCAAAGTGCATAAATAAAATAAACCC | 10.3 ± 0.26
TTTTTTTTTTTTTTCTGTACAAATTAAATCTACATA [XGTACX_site8285] | 10.6 ± 0.64
ATATTTAAAAAATGATGTACAAAAATGTAGTCACAC [XGTACX_site6208] | 11.2 ± 0.78
GAAATTAAATGACATACACACTATATTATAGATTTT [CACACA_site7468] | 9.82 ± 0.11
TATTTTAATGAATTCACACATATAATTTATTTTATA [CACACA_site4538] | 9.69 ± 0.15
TTTGTAAGAAATAAATGTACAAAAATTAATTTTTAT [XGTACX_site8983] | 10.6 ± 0.41
ATTTGCAGTATTTCGGAACACACAAACATAAATATG [CACACA_site8726] | 10.4 ± 0.23
TATAAAAAATTCTTCCTTATTTTATGATATATATAT [TGCATGCA_negctrl_site57] | 9.735 ± 0.078
ATATTTCAAAATGAAAGTACATATAAAAATTATACA [XGTACX_site3787] | 11.1 ± 0.69
AAGTATTTTTTTACATGTACATATATATATATATAT [XGTACX_site5065] | 11.3 ± 0.95
AAATAGATAAGTAGGACACACATATATATATATTAA [CACACA_site1862] | 11.3 ± 0.9
TATTCCTATAAAAAAACACACACATATAAATATATA [CACACA_site8727] | 9.875 ± 0.049
AAATATATTTCACGCACACACACCCCAAATAAATTT [CACACA_site3820] | 10.5 ± 0.32
AAATGAATATTCATAGTGCAATATATAAATGAAAAT | 10.07 ± 0.049
CAAAAACATACCTACACACACAATATGTATTTATAA [CACACA_site5862] | 9.985 ± 0.021
AATTACATTCAATTCTGTACTAATAGTAATTCAAAA [XGTACX_site7419] | 11 ± 0.63
TTTAATTATTAGTGTGCACACAACTATGAGTTTTTA [CACACA_site8997] | 10.5 ± 0.29

Sequence | gcPBM binding intensity (ln)
TTAAAAATGTGTGTGCGTACATAATATTTCGAAAAA [XGTACX_site8197] | 11.6 ± 1
GTACAAATGATTAATCCTTTACTTATATATATATAT [XGTACX_negctrl_site138] | 10.8 ± 0.64
ATAATTACATAGATTGGTACACATTTTTGATTGTAT [XGTACX_site3802] | 11.1 ± 0.79
TTCTGGCAAAATAACACACACATATATTTTATATAC [CACACA_site3242] | 10.24 ± 0.049
GAACATTTACGCCCCACACACCTACCAACAAAAAAA [CACACA_site7746] | 10.6 ± 0.48
TTCTTAAAAAAAAATAAAATAAAAAAAAAAATAAAA [CACACA_negctrl_site99] | 9.56 ± 0.14
CATTTTTTTTTATAAATACACACGTACGGGTGCATA [CACACA_site1569] | 11 ± 0.8
AAATGAACACGAAAGGAAAAAAAAATATATATATAT [CACACA_negctrl_site267] | 10.1 ± 0.74
TTTTTCATATGACACACACACAAAAATAATGTGGAA [CACACA_site7692] | 10.2 ± 0.23
TCATTTTATTATTCTACACACTTATCTATAATTATA [CACACA_site34] | 10.16 ± 0.014
TAAAATATAGAAAATTTTATTAAATATAAAAAAATA [CACACA_negctrl_site1441] | 9.495 ± 0.064
ATTAAATAAAAAAACACACACATATATACATATATA [CACACA_site3445] | 9.81 ± 0.028
CATAATAATAGAAACACACACACATAGACATATATA [CACACA_site1308] | 10.1 ± 0.17
CATATATAACCTATAGCACACATATATAATATATAT [CACACA_site8544] | 10.2 ± 0.21
AAAAATATATATTCAGTGCATATAACAAAAATTATA [GTGCAC_site9794] | 9.89 ± 0.085
TATATATATATATATTGTACATATGTGGTATAAATG [XGTACX_site6108] | 11.1 ± 0.66
TTATATAAACACCAACGTACGTTCATTTAACATAAC [XGTACX_site5250] | 11.1 ± 0.59
AAGAACTTTAATAAGTGTACATTTATTGGAAACATG [XGTACX_site2995] | 11.3 ± 0.65
GCATATCTATTTTCACGTACACAAACATGTATATAT [XGTACX_site3722] | 11.6 ± 0.79
ATATTACATATGTGCTGTACGCAATATATTATATCT [XGTACX_site1520] | 11.6 ± 1
